Source: PubChem BioAssay AID463173 (ICCB-Longwood Screening Facility, Harvard Medical School, 2010)
Out of some 52,000 compounds screened, about 1,700 (3.3%) were called active. No stated cut-off is given here; in the data, active means survival mostly below about 52% (no sharp cut-off); inactive means mostly above about 56%. The list shows a part of the results.

test system: Wild type; test: growth inhibition of S. aureus wild type versus tarO mutant, primary screen, teichoic acid synthesis inhibitors, RN4220, OD600 (AID 463173); settings: S. aureus RN4220 wild type/DeltatarO growth, OD600, 18 h, stronger effect = lower value, screened at 18.75 µg/mL (by protocol)

Row | SMILES | survival
1 | Cc1ccccc1NC(=O)CCN1C(=O)c2ccccc2Sc2ncccc21 | inactive: 90%
2 | COc1cccc(NC(=O)CCc2c(C)nc3ncnn3c2C)c1 | inactive: 73%
3 | COc1ccc(C2CC(=O)N(CC(=O)Nc3ccc(C)c(Cl)c3)c3ccccc3S2)cc1OC (centres undefined) | inactive: 83%
4 | CCOc1ccc(NC(=O)C(=O)NCC(c2cccnc2)N2CCc3ccccc32)cc1 (centres undefined) | inactive: 50%
5 | COc1ccc(-c2nc(SCC(=O)NC3CCCC3)c(-c3ccc(C)cc3)[nH]2)cc1OC | inactive: 77%
6 | Cc1c(C(=O)N2CCOCC2)sc(NC(=O)c2ccc3c(c2)OCO3)c1C#N | inactive: 111%
7 | COc1ccc(N(Cc2cccs2)C(=O)Nc2cccc(Cl)c2)cc1 | inactive: 74%
8 | CCOC(=O)C1CCCN(S(=O)(=O)c2ccc3c(c2)oc(=O)n3C)C1 (centres undefined) | inactive: 88%
9 | Cc1cn2c(=O)cc(COc3ccc(NC(=O)COc4ccccc4)cc3)nc2s1 | inactive: 140%
10 | COc1cc(NC(=O)CN(c2cc(C)cc(C)c2)S(=O)(=O)c2c(C)[nH]c(=O)[nH]c2=O)cc(OC)c1 | inactive: 83%
11 | C#CC(C)(CC)NC(=O)Cn1nnc(-c2ccc(OCc3c(F)cccc3Cl)cc2)n1 (centres undefined) | inactive: 67%
12 | Cc1cc(C)cc(C(=O)n2nc(C)c(S(=O)(=O)N3CCOCC3)c2C)c1 | inactive: 112%
13 | O=C(CSc1ncc2c(n1)-c1ccccc1N(Cc1ccc(F)cc1)S2(=O)=O)NCCc1ccccc1 | inactive: 73%
14 | Cc1ccc(-n2c(=O)c3ccc(C(=O)NCc4ccccc4Cl)cc3n(CC(=O)Nc3ccc(C)cc3C)c2=O)cc1 | inactive: 86%
15 | CCOC(=O)c1c(NC(=O)c2ccc(F)cc2)sc2c1CCC(CC)C2 (centres undefined) | active: 3%
16 | CCOC(=O)c1cccc(NC(=O)[C@H](CSCc2ccccc2)N2Cc3ccccc3C2=O)c1 | inactive: 76%
17 | Cc1ccc(Nc2cc(C)nc3nncn23)c(C)c1 | inactive: 103%
18 | CCOc1ccc(-c2nc3ccccc3c(=O)o2)cc1 | inactive: 83%
19 | O=c1[nH]c(C2CCCN(S(=O)(=O)c3ccccc3)C2)nc2c1nnn2Cc1ccc(OC(F)(F)F)cc1 (centres undefined) | inactive: 85%
20 | Cc1cc(C)nc(NCC(C)c2ccccc2)n1 (centres undefined) | inactive: 114%
21 | O=C(C1CCC(Cn2c(=O)c3sccc3n(Cc3ccc(F)cc3)c2=O)CC1)N1CCOCC1 (centres undefined) | inactive: 68%
22 | CN1C(=O)C2(c3ccccc31)N(c1ccc(Br)cc1)C(=O)CS2(=O)=O (centres undefined) | inactive: 73%
23 | COc1ccc2c(c1)-c1nc(NC(=O)c3cc(OC)c(OC)c(OC)c3)sc1CC2 | inactive: 75%

Row | SMILES | survival
24 | Cc1cc(C)cc(Nc2nc3cc(Cl)c(Cl)cc3nc2-n2nc(C)cc2C)c1 | inactive: 81%
25 | Cn1cc(-c2cc3n(n2)CCC(=O)N3CCCC(=O)NCc2ccccc2Cl)c2ccccc21 | inactive: 120%
26 | CC(C)CCn1c(SCc2cccc(F)c2)nc2ccsc2c1=O | inactive: 76%
27 | CN1C(=O)c2[nH]nc(-c3ccc(F)cc3)c2C1c1cccc(O)c1 (centres undefined) | inactive: 99%
28 | CCc1[nH]nc2c1C1(C(=O)N(CC)c3ccccc31)C(C#N)=C(N)O2 (centres undefined) | inactive: 112%
29 | CCOc1ccccc1C(=O)N1CCOCC1 | inactive: 124%
30 | CCc1ccc2oc(C(=O)NCc3ccccc3)cc(=O)c2c1 | inactive: 94%
31 | Cc1ccc(NC(=O)Cn2c(-c3nonc3N)nc3ccccc32)c(Br)c1 | inactive: 95%
32 | O=C(O)C1CCCCC1C(=O)N1CCc2ccccc21 (centres undefined) | inactive: 110%
33 | CCCCOc1ccc(C2C(=O)N(C3CCCCC3)CC(=O)N2CCCC)cc1 (centres undefined) | inactive: 72%
34 | Cc1ccc(N2CCN(c3ccc(C)cc3)C2c2ccc(C)o2)cc1 | inactive: 117%
35 | CCn1nc(CCC(=O)O)c2ccccc2c1=O | inactive: 114%
36 | Cc1ccc(-n2ncc(C(=O)NCCCN3CCc4ccccc4C3)c2C2CCN(C(=O)OC(C)(C)C)CC2)c(C)c1 | inactive: 82%
37 | CCCCN(CC)CCCNC(=O)c1ccc2c(c1)NC(=O)CN2C | inactive: 57%
38 | COc1cccc(CNC(=O)CCc2c(C)c3ccc(O)c(C)c3oc2=O)c1 | inactive: 93%
39 | Cc1ccc(OCCOCCn2c(-c3ccc(Cl)cc3)nc3ccccc3c2=O)cc1 | inactive: 44%
40 | CCOC(=O)c1noc2ncn(CC(=O)Nc3ccccc3OC)c(=O)c12 | inactive: 133%
41 | O=C(/C(=C\c1ccc(F)cc1)n1ccccc1=O)N1CCCC1 | inactive: 107%
42 | COc1ccc2c(c1)CCc1c(C(=O)Nc3ccc(C#N)cc3)noc1-2 | inactive: 77%
43 | COc1cccc(CNC(=O)Cn2nc(N3CCN(c4ccccc4OC)CC3)ccc2=O)c1 | inactive: 93%
44 | CC(C(=O)N1CCCc2ccccc21)N1C(=O)c2ccccc2C1=O (centres undefined) | inactive: 107%
45 | S=C(NNc1nc(N2CCCCC2)nc(N2CCCCC2)n1)NC1CCCCC1 | inactive: 127%
46 | COc1ccc(-n2c(SCc3ccccc3)nc3c([nH]c4ccccc43)c2=O)cc1 | inactive: 148%

Row | SMILES | survival
47 | Cc1c(Cl)cccc1NC(=O)C(C)n1c(=O)cc(C)c2c(C)nn(-c3ccccc3)c21 (centres undefined) | inactive: 69%
48 | COc1ccc(C)cc1NC(=O)CN1C(=O)COc2ccc(S(=O)(=O)N3CCC(C)CC3)cc21 | inactive: 89%
49 | CCCc1[nH]nc2c1C(CCC)C(C#N)=C(N)O2 (centres undefined) | inactive: 96%
50 | CCOc1ccc(-n2c(=O)c3c(C)c(C)sc3n(Cc3ccccc3C)c2=O)cc1 | inactive: 89%
51 | Cc1n[nH]c(=S)n1CC(=O)N1c2ccccc2CCc2ccccc21 | inactive: 102%
52 | CNC(=O)c1c(NC(=O)c2nc(SCc3ccc(C)cc3)ncc2Cl)sc2c1CCCC2 | inactive: 79%
53 | O=C(CNC1CC1)NCc1cccs1 | inactive: 98%
54 | CCOC(=O)c1cc(S(=O)(=O)N2CCN(c3cccc(C)c3C)CC2)[nH]n1 | inactive: 72%
55 | Cc1ccc(NC(=O)Nc2cn(CC(C)C)c(=O)c3ccccc23)cc1N(C)C | inactive: 71%
56 | COc1cccc(CNC(=O)C2CCN(C(=O)c3cnn(-c4ccccc4)c3-n3cccc3)CC2)c1 | inactive: 81%
57 | COc1ccccc1OCC(=O)N1CCC(c2nc3ccccc3o2)CC1 | active: -12%
58 | Cc1ccc(-n2ncc(C(=O)NC3CCCCC3)c2C2CCN(C(=O)OC(C)(C)C)CC2)cc1 | inactive: 136%
59 | CCN(c1ccccc1C)S(=O)(=O)c1nnc(NC(=O)c2ccco2)s1 | inactive: 49%
60 | COc1ccc(Nc2nnc(-c3ccc(C)c(S(=O)(=O)NCCO)c3)c3ccccc23)cc1C(N)=O | inactive: 70%
61 | CCCS(=O)(=O)c1ncc(Cl)c(C(=O)Nc2c(C(=O)Nc3ccccc3)oc3ccccc23)n1 | inactive: 62%
62 | COc1ccc(-c2c(C)nn3c(C(F)(F)F)cc(-c4ccccc4)nc23)cc1OC | inactive: 72%
63 | COc1ccc(N(C)C(=O)c2cc3c(s2)-c2c(C)cccc2OC3)c(OC)c1 | active: 12%
64 | Cc1ccc(NC(=O)c2c(C)oc3c2C2=NCCN2C=N3)cc1F | inactive: 76%
65 | COc1ccc(CNc2nc3c(-c4cccc(F)c4)nnn3c3ccccc23)cc1 | inactive: 86%
66 | CCc1c(C)nc2cc(-c3cc(OC)cc(OC)c3)nn2c1NCCCN1CCOCC1 | inactive: 99%
67 | CN(CC(=O)NCc1ccc(F)cc1)S(=O)(=O)c1ccc2[nH]c3c(c2c1)CCCC3 | inactive: 128%
68 | COC(=O)c1cc2sccc2n1CC(=O)Nc1ccc(OC)c(OC)c1 | inactive: 76%
69 | Cc1cccn2c(=O)cc(CSc3nnc(NC(=O)COc4ccccc4)s3)nc12 | inactive: 71%

Row | SMILES | survival
70 | O=C(Cn1cccc1C(=O)c1ccccc1)NCc1ccccc1Cl | inactive: 87%
71 | O=C(Nc1cccnc1)c1cc(-c2ccc(Cl)cc2)on1 | inactive: 84%
72 | O=C(c1ccc2c(c1)N(Cc1cccc(F)c1)C(=O)c1ccccc1S2)N1CCC2(CC1)OCCO2 | inactive: 77%
73 | COc1ccc(C2=C(N3CCN(c4cc(C)ccc4C)CC3)c3ccccc3C2=O)cc1 | inactive: 41%
74 | CCc1ccc(-n2c(=O)c3sc4ccccc4c3n(CC(=O)NCc3ccccc3)c2=O)cc1 | inactive: 96%
75 | Cc1c(Cl)cccc1NC(c1ccc(F)cc1)c1nnc(-c2ccccc2)o1 (centres undefined) | inactive: 112%
76 | O=C(CNCC1CCCCC1)Nc1ccccc1N1CCCCC1 | inactive: 100%
77 | Cc1ccc(-n2c(=O)c3c4c(sc3n(CC(=O)Nc3cccc(Cl)c3)c2=O)CCCCC4)cc1C | inactive: 103%
78 | Fc1ccc(C(NCCc2ccccc2)c2nnc(-c3ccccc3Cl)o2)cc1 (centres undefined) | inactive: 94%
79 | Cc1ccc(C)c(CN2CCCN(CC(=O)Nc3ccc(C)c(C)c3)S2(=O)=O)c1 | inactive: 73%
80 | COc1ccc2nc(SCC(=O)O)[nH]c2c1 | inactive: 100%
81 | Cc1ccc(S(=O)(=O)NCc2nc3nc(C)cc(C)n3n2)cc1 | inactive: 120%
82 | Cc1cccc(C)c1OCC(=O)NC(Cc1c[nH]c2ccccc12)C(=O)O (centres undefined) | inactive: 139%
83 | CSc1nnc(C2CCCN(CC(=O)N3CCCC3)C2)n1C (centres undefined) | inactive: 84%
84 | CCOC(=O)c1c(S(=O)(=O)N2CCC(C(=O)N3CCN(c4ccccc4F)CC3)CC2)c(C)n(C)c1C | inactive: 78%
85 | Cn1cc(C(=O)NCc2ccccc2Cl)c(=O)c2cc(S(=O)(=O)N3CCCCCC3)ccc21 | inactive: 69%
86 | O=C1c2ccccc2-c2nc3ncnn3c(-c3ccc4c(c3)OCO4)c21 | inactive: 104%
87 | COc1cc(Cl)c(C)cc1NC(=O)CCc1nc2cccnc2n1Cc1cccs1 | inactive: 115%
88 | CCN(CC)CCCNC(=O)c1ccc(Cn2c(=O)[nH]c3cc(OC)c(OC)cc3c2=O)cc1 | inactive: 65%
89 | CCOC(=O)c1ccc(NC(=O)CCCn2c(=O)c3cccn3c3cccnc32)cc1 | inactive: 87%
